Test results taken from patent publication US20240247076A1 (SUZHOU ALPHAMAB, published 2024).
Positions count from the first letter of the chain named.

T1: mApple-chis (mouse, UniProt Q91Y47 19-389)
T1 construct: range 1-389; also called mapple-chis-biotin
T1 sequence (looked up): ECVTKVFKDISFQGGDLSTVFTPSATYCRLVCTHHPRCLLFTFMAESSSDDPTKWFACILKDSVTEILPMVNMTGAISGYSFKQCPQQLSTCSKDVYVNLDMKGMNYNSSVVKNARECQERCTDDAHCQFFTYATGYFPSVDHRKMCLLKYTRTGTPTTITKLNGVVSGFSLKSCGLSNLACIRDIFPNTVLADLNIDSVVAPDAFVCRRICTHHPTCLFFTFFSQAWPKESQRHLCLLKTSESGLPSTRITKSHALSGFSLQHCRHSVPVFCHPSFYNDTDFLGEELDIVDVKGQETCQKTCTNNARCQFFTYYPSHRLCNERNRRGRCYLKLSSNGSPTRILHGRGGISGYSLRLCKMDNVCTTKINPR

B1: iFE96-Fc (Fc fusion)
chain: QVQLQESGGGSVQAGGSLRLSCAASGFTASSNFMGWFRQAPGKEREGVAAIYTGGASTFYADSVKGRFTISQDNAKNTVYLEMDTLKPEDTAMYYCAAAPRWIAPLRADRYEYWGQGTQVTVSS[sequence of human IgG1 Fc omitted]
notes: VHH fused to human IgG1-Fc, made in HEK293
B2: iFE15m-Fc (Fc fusion)
chain: QVQLQESGGGLVQPGGSLRLSCAASGFTFSNYDMSWVRQAPGKGLEGVSGINSGGGHPHYADSVKGRFTISRDNAKNTLYLQMNSLKTEDTAVYFCATDEGERYGEDFGYWGQGTQVTVSS[sequence of human IgG1 Fc omitted]
notes: as for B1
B3: iFE29m-Fc (Fc fusion)
chain: QVQLQESGGGLVQPGGSLRLSCVASGLTFSLYDMSWVRQAPGKGLEGVSGISGESGGSTYYADSVKGRFTISRDNAKNTLYLQMNSLKTEDTAVYYCATGDRGTWYREDDWGQGTQVTVSS[sequence of human IgG1 Fc omitted]
notes: as for B1
B4: iFE166-Fc (Fc fusion)
chain: QVQLQESGGGSVQAGGSLRLSCVASGFTGCRNIMSWYRQAPGKDREFVSAIDSDGVDYADSVKGRFSISQHNDKKTMYLQMTSLKLEDTAMYYCRRVDFGTTSQCRGNYWGQGTQVTVSS[sequence of human IgG1 Fc omitted]
notes: as for B1
B5: iFE168-Fc (Fc fusion)
chain: QVQLQESGGGSVQAGGSLRLSCAASGYTFSNNFVGWFRQAPGKKREGVATIYTLGSSTYYADSVKGRFTISQDNAKNTLYLEMNSLKPEDTAMYYCAAARGWVSPLDPARFVYWGQGTQVTVSS[sequence of human IgG1 Fc omitted]
notes: as for B1
B6: huFE35huv1-Ld-Fc (Fc fusion)
chain: QVQLVESGGGSVQAGGSLRLSCTASGFTFDDSDMGWYRQAPGNECELVSTISSDGRGFYADSVKGRFTISQDNSKNTVYLQMNSLRAEDTAVYYCAAGWYGSFCSGLGQGTLVTVSS[sequence of human IgG1 Fc omitted]
notes: Humanized VHH fused to human IgG1 Fc; 'Ld' not explained; also called huFE35huvl-Ld-Fc
B7: huFE56huv1-Ld-Fc (Fc fusion)
chain: QVQLVESGGGSVQAGGSLRLSCAASGHTYSSNYCMAWFRQAPGKEREGVAAIYSDGSTSYADSVKGRFTISKDNSKNTLYLQMNSLRAEDTAVYYCAATAYEGSWTGKQPLCLLYEYTYWGQGTLVTVSS[sequence of human IgG1 Fc omitted]
notes: Humanized VHH fused to human IgG1 Fc; 'Ld' not explained; also called huFE56huvl-Ld-Fc
B8: huFE97huv1-Ld-Fc (Fc fusion)
chain: QVQLVESGGGSVQAGGSLRLSCTASEFTFDDSDMAWYRQAPGNECELVSTITSDGGTYYADSVKGRFTISQDNSKNTMYLQMNSLRAEDTAVYYCAADQWGSAEGDCTSSYPGGYWGQGTLVTVSS[sequence of human IgG1 Fc omitted]
notes: Humanized VHH fused to human IgG1 Fc; 'Ld' not explained; also called huFE97huvl-Ld-Fc
B9: huFE148huv1-Ld-Fc (Fc fusion)
chain: QVQLVESGGGSVQAGGSLRLSCAASGYTFNNNFVGWFRQAPGKEREGVAAIYSLGGSTYYADSVKGRFTISQDNSKNTVYLQMNSLRAEDTAVYYCAGAITWVPPLSHRRYTYWGQGTLVTVSS[sequence of human IgG1 Fc omitted]
notes: Humanized VHH fused to human IgG1 Fc; 'Ld' not explained; also called huFE148huvl-Ld-Fc
B10: huFE13huv1-Ld-Fc (Fc fusion)
chain: QVQLVESGGGSVQAGGSLRLSCAASGYTYSMGAMAWFRQAPGKEREGVALIATSSGFISYTDSVKGRFTISQDNSKNTVYLQMNSLRAEDTAVYYCAAGTQFSWSPGSYNYWGQGTLVTVSS[sequence of human IgG1 Fc omitted]
notes: Humanized VHH fused to human IgG1 Fc; 'Ld' not explained; also called huFE13huvl-Ld-Fc
B11: huFE5huv1-Ld-Fc (Fc fusion)
chain: QVQLVESGGGSVQAGGSLRLSCAASGYTYSFNSMGWFRQAPGKEREGVAVIYLGSTHYADSVKGRFTISQDNSKNTVYLQMNSLRAEDTAVYYCAADLLEYDGTWFGSTYNYWGQGTLVTVSS[sequence of human IgG1 Fc omitted]
notes: Humanized VHH fused to human IgG1 Fc; 'Ld' not explained; also called huFE5huvl-Ld-Fc
B12: iFE17EREG-Fc (Fc fusion)
chain: QVQLQESGGGLVQPGGSLRVSCAASGFTFSLYDMSWVRQAPGKEREGVSGINSDDGSTSYADSVKGRFTISRDNAKNTLYLQMNSLKTEDTAVYYCATGVGARWFREDDWGQGTQVTVSS[sequence of human IgG1 Fc omitted]
notes: as for B1
B13: iFE49-Fc (Fc fusion)
chain: QVQLQESGGDSVQAGGSLRLSCAASGLISTGLISTRHCMSWFRQAPGKEREEVAVIGSDGSTRYGDFAKGRFTISKDTAKNTLYLQMNSLEPEDTAMYYCAAGPLVSTASRRRTRCPEGPRENIYWGQGTQVTVSS[sequence of human IgG1 Fc omitted]
notes: as for B1
B14: iFE163-Fc (Fc fusion)
chain: QVQLQESGGDSVQAGGSLRLSCIASGFTFDDSDMGWYRQAPGHQCEFVSHITNDGTTYYADSVKGRFTISRDNAKNTVYLQMNSLKPEDAAVYYCAADAWGGGRSTCVNPIGYWGQGTQVTVSS[sequence of human IgG1 Fc omitted]
notes: VHH fused to human IgG1-Fc, made in HEK293; also called IFE163-Ld-Fc
B15: huFE97huv2-Ld-Fc (Fc fusion)
chain: B8 chain with S11L, A14P, T23A, Q71R, M78L
notes: Humanized VHH fused to human IgG1 Fc; 'Ld' not explained
B16: huFE148huv2-Ld-Fc (Fc fusion)
chain: B9 chain with S11L, A14P, E44G, R45L, A49S, Q72R, V79L, G98A
notes: as for B15
B17: huFE13huv2-Ld-Fc (Fc fusion)
chain: B10 chain with S11L, A14P, E44G, R45L, A49S, Q72R, V79L
notes: as for B15
B18: huFE5huv2-Ld-Fc (Fc fusion)
chain: B11 chain with S11L, A14P, E44G, R45L, A49S, Q70R, V77L
notes: as for B15

Target: T2, human FXI in plasma (human, UniProt P03951)
Test: cell-based or functional assay

Activity (FXI), APTT, 1 µg/mL antibody | Coagulation time (s), APTT, 1 µg/mL antibody | Binder
79% | 62.5 s | B1
88% | 61 s | B2
80.7% | 62.2 s | B3
82.5% | 61.9 s | B4
83.7% | 61.7 s | B5

Target: T2, human FXI in plasma
Test: cell-based or functional assay
Remark: another data set of the same source

activity of FXI factor in human plasma at 0.1 µg/mL | activity of FXI factor in human plasma at 0.5 µg/mL | activity of FXI factor in human plasma at 1 µg/mL | activity of FXI factor in human plasma at 5 µg/mL | activity of FXI factor in human plasma at 10 µg/mL | Binder
81.8% | 58.4% | 33% | 1.9% | 1.9% | B6
87% | 61.7% | 33.4% | 1.7% | 1.5% | B7
85.2% | 60.9% | 22.6% | 1.6% | 1.5% | B8
84.9% | 69.8% | 48.3% | 30.9% | 22.2% | B9
80% | 61.1% | 29.8% | 13.1% | 11.2% | B10
87.2% | 68.9% | 47.4% | 7.5% | 6.15% | B11

Target: T3, hApple-chis (human, UniProt P03951 partial chain)
T3 construct: range 1-387; also called happle-chis-biotin
Test: ELISA, Fc fusion on coated antigen

EC50 | Binder
3.85 µg/mL | B12
0.0276 µg/mL | B1
0.0422 µg/mL | B2
0.058 µg/mL | B3
0.0448 µg/mL | B4
0.0657 µg/mL | B13
0.0258 µg/mL | B5

Target: T1, mApple-chis
Test: ELISA, Fc fusion on coated antigen

EC50 | Binder
0.0331 µg/mL | B1
0.0474 µg/mL | B4
0.0315 µg/mL | B5
0.0554 µg/mL | B14

Target: T3, hApple-chis
Test: BLI, antibody captured on sensor, antigen in solution

Kd | Binder
< 0.001 nM | B6
< 0.001 nM | B7
< 0.001 nM | B8
< 0.001 nM | B15
0.37 nM | B9
0.45 nM | B16
0.764 nM | B10
0.664 nM | B17
< 0.001 nM | B11
0.00231 nM | B18

Target: T4, recombinant human factor XI (hFXI) (human, UniProt P03951)
T4 construct: also called hFXI-Chis; hFXI-CHis
Test: as above

Kd | Binder
3.97 nM | B7
2.67 nM | B8
2.51 nM | B15
2.64 nM | B9
4.56 nM | B16
8.84 nM | B10
10.5 nM | B17
0.656 nM | B11
0.612 nM | B18

Target: T5, RabFXI-Apple-CHis protein (New Zealand rabbit)
T5 construct: also called FXI proteins of New Zealand rabbits
Test: as above

Kd | Binder
0.878 nM | B8
0.96 nM | B15
7.83 nM | B9
7.21 nM | B16
29.5 nM | B10
31.5 nM | B17
287 nM | B11
451 nM | B18

Target: activated human factor 11 protein (hFXIa) (human, UniProt P03951)
Test: as above

Kd | Binder
45.5 nM | B6
28.8 nM | B7
1.42 nM | B8
5.05 nM | B9
6.93 nM | B10
